PubChem BioAssay AID488969 (Vanderbilt High Throughput Screening Facility, 2010)
Over roughly 110,000 compounds, “z-score” has its median near -0.1; the highest 2% begin near 2. This is one part of the list.

What follows are compounds tested against Metabotropic glutamate receptor 8 (Rattus norvegicus) (UniProt P70579) (assay: rat mGluR8 modulators via GIRK flux, primary screen, cell-based, thallium flux, HTS (AID 488969)). Conditions: HEK293 rat mGluR8, GIRK (G protein-gated inwardly rectifying potassium channel) thallium flux, FluoZin2; at 10 µM; stronger effect = higher value; submaximal glutamate (EC20) added with thallium.
Sequence of UniProt P70579 (P70579 whole entry, looked up): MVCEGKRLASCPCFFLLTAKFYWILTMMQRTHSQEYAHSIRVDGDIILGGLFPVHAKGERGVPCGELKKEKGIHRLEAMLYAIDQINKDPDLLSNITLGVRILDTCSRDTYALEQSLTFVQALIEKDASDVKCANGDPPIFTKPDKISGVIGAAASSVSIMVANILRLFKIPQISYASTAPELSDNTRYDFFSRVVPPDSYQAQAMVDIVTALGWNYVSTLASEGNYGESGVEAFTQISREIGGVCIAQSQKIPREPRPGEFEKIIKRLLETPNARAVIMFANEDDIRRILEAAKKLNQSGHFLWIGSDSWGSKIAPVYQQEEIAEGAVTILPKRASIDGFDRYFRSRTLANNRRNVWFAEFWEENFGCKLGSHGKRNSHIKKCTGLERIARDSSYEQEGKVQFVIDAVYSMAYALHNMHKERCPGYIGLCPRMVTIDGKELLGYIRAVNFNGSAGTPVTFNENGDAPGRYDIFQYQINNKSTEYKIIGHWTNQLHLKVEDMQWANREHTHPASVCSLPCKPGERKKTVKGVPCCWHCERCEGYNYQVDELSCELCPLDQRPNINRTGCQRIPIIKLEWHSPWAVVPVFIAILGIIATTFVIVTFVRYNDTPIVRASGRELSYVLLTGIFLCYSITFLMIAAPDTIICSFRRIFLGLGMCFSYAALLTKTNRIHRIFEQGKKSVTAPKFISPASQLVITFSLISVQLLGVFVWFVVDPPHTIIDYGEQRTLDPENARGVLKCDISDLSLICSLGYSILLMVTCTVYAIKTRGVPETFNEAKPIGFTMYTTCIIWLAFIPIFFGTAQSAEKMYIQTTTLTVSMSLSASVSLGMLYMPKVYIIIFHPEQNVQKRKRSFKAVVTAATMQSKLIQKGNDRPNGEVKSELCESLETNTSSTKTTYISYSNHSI

Row | SMILES | z-score
1 | CCOC(=O)c1cnn(-c2c(Cc3ccccc3)c(C)nc3c(-c4ccccc4)c(C)nn23)c1N | -0.0157
2 | O=C1C(Cl)=C(NCC2CCCO2)C(=O)N1Cc1ccccc1 (stereo unspecified) | 0.22
3 | CCOCCc1nnc(NC(=O)C(CC)c2ccccc2)s1 (stereo unspecified) | -0.74
4 | CN=C1CC(C)(C)CC(=O)/C1=C(/O)CCC(=O)NC | -0.292
5 | CCOC(=O)N1CCN(c2ncnc3c2[nH]c2ccc(OC)cc23)CC1 | -0.623
6 | O=C1CCC(=O)N1CCCCCc1nc(-c2ccccc2)no1 | 0.0731
7 | CCC(C)NC(=O)C(Cc1ccccc1)NS(=O)(=O)c1cccc2nsnc12 (stereo unspecified) | 0.341
8 | CCN(CC#CCC1(O)c2ccccc2-c2ccccc21)CCO | 0.104
9 | CC(=O)N[C@H]1C[C@@H]1c1ccccc1 | 0.567
10 | O=C1CC(c2ccccc2)CC(O)=C1C=NCCN1CCN(C(=S)Nc2cccc(Cl)c2)CC1 (stereo unspecified) | -1.85
11 | COc1ccc(Br)cc1S(=O)(=O)n1ccnc1C | 0.214
12 | NC(=O)NC(c1ccccc1)c1ccccc1F (stereo unspecified) | -0.121
13 | Cc1ccc(Cl)cc1N1CCN(C(=O)CN(C2CCCCC2)S(C)(=O)=O)CC1 | -0.0779
14 | COc1ccc(C2=CC(c3ccc(C)cc3)n3nnnc3N2)cc1 (stereo unspecified) | -1.18
15 | O=c1c2ccccc2nc2n1-c1ccccc1CCC2 | -0.0901
16 | CCOc1cc2c(cc1OCC)C(C(=O)O)C(c1ccc(OC)c(O)c1)N(C)C2=O (stereo unspecified) | 0.478

Row | SMILES | z-score
17 | CCn1c(=NC(=O)CSC(C)=O)sc2cc(F)ccc21 | 0.658
18 | Cn1nnc2cc(NC(=O)NCc3ccc4c(c3)OCO4)ccc21 | 0.331
19 | CCOC(=O)CN1C(=O)C(O)(CC(=O)c2ccc3c(c2)CCCC3)c2ccccc21 (stereo unspecified) | -0.0925
20 | O=C1c2[nH]nc(-c3ccccc3O)c2C(c2cccc(Cl)c2)N1CC1CCCO1 (stereo unspecified) | -0.455
21 | O=C(CSc1nnc(-c2ccc(O)cc2)n1Cc1ccccc1)NNC(=O)c1ccc(Br)cc1 | -0.325
22 | C=CCNC(=O)c1c(Cl)cccc1Cl | -0.161
23 | Nc1nnc(SCC(=O)NC2CCCCC2)n1-c1ccccc1 | -0.414
24 | CCOc1ccc(NC(=O)COc2ccc(C(=O)NCCc3ccccc3)cc2)cc1 | -0.0849
25 | COc1ccc(C(=O)Nc2cccc(/C(C)=N/NC(=O)c3ccc([N+](=O)[O-])cc3)c2)cc1OC | 0.147
26 | COc1ccc(-n2ccnc2SCC(=O)Nc2ccccc2)cc1 | -0.308
27 | COc1ccc(C)cc1NC(=O)CN1CCN(c2ccc(F)cc2)CC1 | 0.284
28 | Cc1ccc(CN2C(=O)CCC2C(=O)NCc2cccnc2)cc1 (stereo unspecified) | 0.00884
29 | Cc1ccc(NC(=O)COC(=O)C2CC2)c(Br)c1 | -0.43
30 | COC(=O)c1ccc(CSc2nc3ccccc3o2)cc1 | 1.01
31 | COc1ccccc1NS(=O)(=O)c1cc(N/C(=N\S(=O)(=O)c2ccccc2)c2ccc(F)cc2)ccc1Cl | -0.834
